{"source": "PubChem BioAssay AID624296", "about": "(National Center for Advancing Translational Sciences (NCATS), 2012)", "note": "In all, about 350,000 compounds went through this assay and about 9,900 (2.8%) were called active. The inconclusive results got no clear call from the source; some entries with a clear call stand among them for comparison. Calls come from the whole dose curve; as a rule, active = well fitted activation curve with a large enough effect; inconclusive = small, poorly fitted or top-dose-only effect; inactive = no such curve, though single readings can be large or run the other way. No potency is given beside an inconclusive call; the fits are too rough. Potency is the fitted concentration of half-maximal effect; tags give direction and shape of the fitted curve."}
{"assay": "A quantitative high throughput screen for small molecules that induce DNA re-replication in MCF 10a normal breast cells; note: nearly all actives have a fitted effect of over 50% in size; for activity, positive = re-replication: % of control where 0% means no effect.", "settings": "MCF 10A DNA re-replication, Hoechst nuclear intensity, 48 h; activity, positive = re-replication: at 46.1 µM (top of the series)"}
{"compound": "COc1ccc(-c2cc(-c3ccc(OC)cc3)c(C#N)c(SC)n2)cc1", "Potency": "active: 20.6 µM"}
{"compound": "CCCn1c(C)cc(C(=O)COC(=O)c2cc(S(=O)(=O)NCC(C)C)c(Cl)cc2Cl)c1C", "Potency": "inconclusive [activator, single point]"}
{"compound": "O=C(CN1CCCC1)N1c2ccccc2Sc2ccccc21", "Potency": "inactive"}
{"compound": "COc1ccc(N2CCN(Cc3ccc(Br)s3)CC2)cc1", "Potency": "inconclusive [activator, partial curve]"}
{"compound": "C=CCOC(=O)C(C#N)c1nc2ccccc2nc1N1CCN(c2ccccc2OC)CC1", "note": "(centres undefined)", "Potency": "inconclusive [activator, partial curve, poor fit]"}
{"compound": "N#CC1=C(SCC(N)=O)NC2=C(C(=O)c3ccccc32)C1c1ccc(Cl)cc1", "note": "(centres undefined)", "Potency": "inconclusive [activator, partial curve, poor fit]"}
{"compound": "Cc1ccc(C)c(N2CCN(C3CCCCC3NS(=O)(=O)c3ccccc3)CC2)c1", "note": "(centres undefined)", "Potency": "inconclusive [activator, full curve, poor fit]"}
{"compound": "Cc1cc(C)c(C#N)c(Oc2ccc(O)cc2)n1", "Potency": "inactive"}
{"compound": "CN(CC(=O)NCCCc1ccccc1)Cc1ccc(Br)cc1", "Potency": "inactive"}
{"compound": "CC(C)CC(C(=O)NC1CCCCC1)N(Cc1ccccc1)C(=O)c1snc(C(N)=O)c1N", "note": "(centres undefined)", "Potency": "inconclusive [activator, single point]"}
{"compound": "COc1ccc(NC(=O)C2C3C=CC4(O3)C2C(=O)N(CCCN2CCCCC2)C4C(=O)NC2CCCC(C)C2C)cc1", "note": "(centres undefined)", "Potency": "inconclusive [activator, single point]"}
{"compound": "CCOC(=O)c1c(CN(CC)CC)n(-c2ccccc2)c2ccc(O)cc12", "Potency": "inconclusive [activator, single point]"}
{"compound": "FC(F)(F)c1nc(NCc2cccnc2)c2ccccc2n1", "Potency": "inactive"}
{"compound": "COc1nnc(-c2ccc(N3CCOCC3)c(NC(=O)c3ccc(C)cc3)c2)c2ccccc12", "Potency": "inconclusive [activator, partial curve, poor fit]"}
{"compound": "COc1cccc(Oc2nc(-c3ccccc3O)nc3ccccc23)c1", "Potency": "inactive"}
{"compound": "CCCCOc1ccc(C(=O)CCN2CCOCC2)cc1", "Potency": "inconclusive [activator, single point]"}
{"compound": "NC(=O)C1=C[C@@H](c2csc3ccccc23)C[C@@H](OCCCCO)O1", "Potency": "inconclusive [activator, single point]"}
{"compound": "COc1ccccc1N1CCN(C(c2ccccc2Cl)c2nnnn2C(C)(C)C)CC1", "note": "(centres undefined)", "Potency": "inactive"}
{"compound": "Cc1nn(C(C)C(=O)NCCCN(Cc2ccccc2)C(C)C)c(=O)c2c1sc1ccccc12", "note": "(centres undefined)", "Potency": "inconclusive [activator, single point]"}
{"compound": "CCOc1ccccc1Nc1cc2n(c(=O)n1)CCc1cc(OC)c(OC)cc1-2", "Potency": "inactive"}
{"compound": "COc1ccc(NC(=O)c2cc(F)cc(F)c2)cc1S(=O)(=O)N1CCCCC1", "Potency": "inconclusive [activator, single point]"}
{"compound": "Cc1csc(SCC(=O)NC2CCCCC2)n1", "activity, positive = re-replication": "inconclusive: 34.8% [activator]"}
{"compound": "Cc1nn(-c2ccccn2)c(C)c1Oc1ccccc1O", "Potency": "inconclusive [activator, single point]"}
{"compound": "COc1ccc(-n2nnnc2SCC(=O)c2ccc(O)c(O)c2)cc1", "Potency": "inconclusive [activator, partial curve, poor fit]"}
{"compound": "COc1ccc(NC(=O)C2CCN(c3nc(-c4ccc(OC)cc4)no3)CC2)cc1", "Potency": "inactive"}
{"compound": "CCOC(=O)CCc1c(C)c2ccc(OC3CCCCC3=O)c(C)c2oc1=O", "note": "(centres undefined)", "Potency": "inactive"}
{"compound": "O=C(OCC(=O)C12CC3CC(CC(C3)C1)C2)c1ccc(O)cc1O", "Potency": "inconclusive [activator, single point]"}
{"compound": "COCC(=O)Nc1nc(-c2ccc([N+](=O)[O-])cc2)cs1", "Potency": "inconclusive [activator, single point]"}
{"compound": "COc1cccc(NC(=O)c2nn(C)c(C(=O)Nc3cccc(OC)c3)c2[N+](=O)[O-])c1", "Potency": "inconclusive [activator, single point]"}
{"compound": "CN(CC(=O)Nc1ccc(S(=O)(=O)N2CCCC2)cc1)Cc1ccc(Cl)c(Cl)c1", "Potency": "inconclusive [activator, full curve, poor fit]"}
{"compound": "O=C(CSc1ncc(-c2ccc(F)cc2)n1Cc1ccco1)Nc1ccc2c(c1)OCO2", "Potency": "inconclusive [activator, single point]"}
{"compound": "CCCCOC(=O)c1c(C)oc2ccc(NS(=O)(=O)c3ccc4c5c(cccc35)C(=O)N4)cc12", "Potency": "inconclusive [activator, single point]"}
{"compound": "CCCCCCC[C@@H](C/C=C/CCC(=O)N(C)C/C(=C/Cl)C/C(=C\\C(=O)N1CC(OC)=CC1=O)OC)OC", "Potency": "inconclusive [activator, partial curve, poor fit]"}
{"compound": "Cc1ccc(C)c(NC(=O)c2cc(S(=O)(=O)N3CCOCC3)cn2C)c1", "Potency": "inactive"}
{"compound": "FC(F)(F)c1ccc(Cl)c(NC(=S)N/N=C/c2ccccc2Cl)c1", "Potency": "inactive"}
{"compound": "Cc1ccc(-c2nc(-c3ccncc3)no2)c(Cl)c1", "Potency": "inactive"}
{"compound": "O=C(COC(=O)c1nc(Cl)c(Cl)c(Cl)c1Cl)c1ccc[nH]1", "Potency": "inconclusive [activator, single point]"}
{"compound": "CCCCN(CC)CCCNC(=O)c1cc2c(=O)n(C)c3ccccc3c2n1C", "Potency": "inconclusive [activator, single point]"}
{"compound": "CCCCCCCCCCOC(=O)Cn1c(COc2ccccc2OC)[n+](C)c2ccccc21", "Potency": "active: 5.8 µM"}
{"compound": "Cc1cc(Cl)ccc1NC(=S)Nc1cccnc1", "activity, positive = re-replication": "inactive: -182% [at 0.0737 µM]"}
{"compound": "CCCn1nc([N+](=O)[O-])c(C(C#N)c2nc3ccccc3o2)c(Cl)c1=O", "note": "(centres undefined)", "Potency": "inconclusive [activator, partial curve, poor fit]"}
{"compound": "c1ccc(CN2CCOCCOCCOCCOCC2)cc1", "Potency": "inconclusive [activator, full curve, poor fit]"}
{"compound": "CSc1nc(SCC(=O)NCc2ccco2)c2c3c(sc2n1)COC(C)(C)C3", "Potency": "inconclusive [activator, single point]"}
{"compound": "COc1cc2c(O)c3c(c(-c4ccc5c(c4)OCO5)c2cc1OC)C(=O)OC3", "Potency": "inconclusive [activator, partial curve, poor fit]"}
{"compound": "O=C(Nc1cc(-c2nc3ncccc3o2)ccc1Cl)c1ccc([N+](=O)[O-])o1", "Potency": "active: 1.3 µM"}
{"compound": "O=C(CN(Cc1ccccc1Cl)C(=O)c1csnn1)NCc1ccc(F)cc1", "Potency": "inconclusive [activator, partial curve, poor fit]"}
{"compound": "Cc1cc(/C=N/NC(=O)Cn2c3ccccc3c(=O)c3ccccc32)c(C)n1-c1ccccc1", "Potency": "active: 20.6 µM"}
{"compound": "CCCCC1(CO)C(=O)N(c2ccccc2)N(c2ccccc2)C1=O", "Potency": "inactive"}
{"compound": "Cc1ccc(N2CCN(C(=O)Nc3cccc([N+](=O)[O-])c3)CC2C)cc1", "note": "(centres undefined)", "activity, positive = re-replication": "inactive: -1.92% [at 9.22 µM]"}
{"compound": "Cc1nc2ccccc2n1CCc1nc2c3ccccc3nc(SCC(=O)NCc3ccco3)n2n1", "Potency": "inconclusive [activator, single point]"}
{"compound": "Cc1ccc(-c2nnc(-c3cccc4ccccc34)o2)cc1", "Potency": "inconclusive [activator, single point]"}
{"compound": "CCCCC(Nc1ncnc2ccccc12)C(=O)O", "note": "(centres undefined)", "Potency": "inconclusive [activator, full curve, poor fit]"}
{"compound": "CCCCC(=O)NC(=S)Nc1cccc(Cl)c1N1CCCCC1", "Potency": "inconclusive [activator, single point]"}
{"compound": "Cc1nc(N2CCN(S(=O)(=O)c3cccc4nonc34)CC2)c2c3c(sc2n1)CCCC3", "Potency": "active: 18.4 µM"}
{"compound": "CC(=O)N=c1sc2cc(C)ccc2n1C", "Potency": "inconclusive [activator, single point]"}
{"compound": "CC1CC(C)CN(Cc2nc(N)nc(Nc3ccccc3)n2)C1", "note": "(centres undefined)", "Potency": "inconclusive [activator, full curve, poor fit]"}
{"compound": "O=C(N/N=C/c1coc2ccc(Cl)cc2c1=O)c1cc(O)cc(O)c1", "Potency": "inactive"}
{"compound": "O=C(OC(C(=O)NCC1CCCO1)c1ccccn1)c1cccs1", "note": "(centres undefined)", "Potency": "inactive"}
{"compound": "Cn1nc([N+](=O)[O-])nc1Oc1ccc(C(C)(C)C)cc1", "Potency": "inconclusive [activator, partial curve, poor fit]"}
{"compound": "CN(C)c1ccc(/C=N/N(CCC(=O)NC(C)(C)C)C2=NS(=O)(=O)c3ccccc32)cc1", "Potency": "active: 18.4 µM"}
{"compound": "COc1ccccc1/C=C(/C(=O)OCC(=O)Nc1ccc(N(C)C)cc1)c1ccccc1", "Potency": "inconclusive [activator, partial curve]"}
{"compound": "COc1cc(OC)c(C2=Nc3ccc(Br)cc3C(c3ccccc3)N2CC(=O)NN)cc1OC", "note": "(centres undefined)", "Potency": "active: 2.91 µM"}
{"compound": "S=c1[nH]nc(COc2ccccc2)n1/N=C/c1ccc(Br)s1", "Potency": "inconclusive [activator, single point]"}
{"compound": "O=C(O)Cn1nc(C(F)(F)F)c2c1CCCC2", "Potency": "inconclusive [activator, single point]"}
{"compound": "CCc1ccc(CNC(=O)C2CCCN(S(=O)(=O)N(CC)c3ccccc3)C2)cc1", "note": "(centres undefined)", "Potency": "inconclusive [activator, partial curve, poor fit]"}
{"compound": "O=C(NC1CCCCC1)c1ccccc1NC(=S)NC(=O)C1CC1", "Potency": "inactive"}
{"compound": "CCCCCCCCCCS(=O)(=O)N/N=C/c1ccccc1OC", "Potency": "active: 18.4 µM"}
{"compound": "Cc1ccccc1NC(=O)c1[nH]cnc1C(=O)NN", "Potency": "inactive"}
{"compound": "Cc1cc(C)c(C(=O)CC(=O)c2ccccc2Cl)c(O)c1", "Potency": "inconclusive [activator, single point]"}
